Measured values published in paper PMC9911399, “Two distinct binding modes provide the RNA-binding protein RbFox with extraordinary sequence specificity”.
Positions count from the first letter of the chain named. The list shows a part of the results.

T1: RBFOX1 RRM RbFoxmut (Fox-RRM*) (Homo sapiens, UniProt Q9NWB1 109-208, R118D;E147R;N151S;E152T)
T1 sequence: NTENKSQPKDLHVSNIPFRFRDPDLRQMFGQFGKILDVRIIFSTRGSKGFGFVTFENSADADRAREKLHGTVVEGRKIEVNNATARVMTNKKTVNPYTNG

B1: CGCCCUU (DNA:RNA)
RNA: GGGAGACCGGAAUUCAGAUUGUCCCGCCCUUUUAAAUCCCGUCGUAGCCACCA
DNA 1: CAATCTGAATTCCGGTCTCCC
DNA 2: TGGTGGCTACGACGGGATT
B2: GCGGCCU (DNA:RNA)
RNA: B1 RNA with C25G, G26C, C27G, C28G, U30C
DNA 1: CAATCTGAATTCCGGTCTCCC
DNA 2: TGGTGGCTACGACGGGATT
B3: CAUCAUU (DNA:RNA)
RNA: B1 RNA with G26A, C27U, C29A
DNA 1: CAATCTGAATTCCGGTCTCCC
DNA 2: TGGTGGCTACGACGGGATT
B4: CAACAAU (DNA:RNA)
RNA: B1 RNA with G26A, C27A, C29A, U30A
DNA 1: CAATCTGAATTCCGGTCTCCC
DNA 2: TGGTGGCTACGACGGGATT
B5: CACUACA (DNA:RNA)
RNA: B1 RNA with G26A, C28U, C29A, U30C, U31A
DNA 1: CAATCTGAATTCCGGTCTCCC
DNA 2: TGGTGGCTACGACGGGATT
B6: GAUGGCU (DNA:RNA)
RNA: B1 RNA with C25G, G26A, C27U, C28G, C29G, U30C
DNA 1: CAATCTGAATTCCGGTCTCCC
DNA 2: TGGTGGCTACGACGGGATT
B7: CUUCGGU (DNA:RNA)
RNA: B1 RNA with G26U, C27U, C29G, U30G
DNA 1: CAATCTGAATTCCGGTCTCCC
DNA 2: TGGTGGCTACGACGGGATT
B8: UCUAGAG (DNA:RNA)
RNA: GGGAGACCGGAAUUCAGAUUGUCCUCUAGAGUUAAAUCCCGUCGUAGCCACCA
DNA 1: CAATCTGAATTCCGGTCTCCC
DNA 2: TGGTGGCTACGACGGGATT
B9: GGGUCUC (DNA:RNA)
RNA: B1 RNA with C25G, C27G, C28U, U31C
DNA 1: CAATCTGAATTCCGGTCTCCC
DNA 2: TGGTGGCTACGACGGGATT
B10: UUAUCUC (DNA:RNA)
RNA: B1 RNA with C25U, G26U, C27A, C28U, U31C
DNA 1: CAATCTGAATTCCGGTCTCCC
DNA 2: TGGTGGCTACGACGGGATT
B11: CUAACGA (DNA:RNA)
RNA: B1 RNA with G26U, C27A, C28A, U30G, U31A
DNA 1: CAATCTGAATTCCGGTCTCCC
DNA 2: TGGTGGCTACGACGGGATT
B12: UGGUGCA (DNA:RNA)
RNA: B8 RNA with C26G, U27G, A28U, A30C, G31A
DNA 1: CAATCTGAATTCCGGTCTCCC
DNA 2: TGGTGGCTACGACGGGATT
B13: UACAUAG (DNA:RNA)
RNA: B8 RNA with C26A, U27C, G29U
DNA 1: CAATCTGAATTCCGGTCTCCC
DNA 2: TGGTGGCTACGACGGGATT
B14: ACCAUAA (DNA:RNA)
RNA: B8 RNA with U25A, U27C, G29U, G31A
DNA 1: CAATCTGAATTCCGGTCTCCC
DNA 2: TGGTGGCTACGACGGGATT
B15: AACCAUG (DNA:RNA)
RNA: B1 RNA with C25A, G26A, C29A, U31G
DNA 1: CAATCTGAATTCCGGTCTCCC
DNA 2: TGGTGGCTACGACGGGATT
B16: GUGUAAG (DNA:RNA)
RNA: B8 RNA with U25G, C26U, U27G, A28U, G29A
DNA 1: CAATCTGAATTCCGGTCTCCC
DNA 2: TGGTGGCTACGACGGGATT
B17: GUCCUCA (DNA:RNA)
RNA: B1 RNA with C25G, G26U, C29U, U30C, U31A
DNA 1: CAATCTGAATTCCGGTCTCCC
DNA 2: TGGTGGCTACGACGGGATT
B18: AGAUCUG (DNA:RNA)
RNA: B1 RNA with C25A, C27A, C28U, U31G
DNA 1: CAATCTGAATTCCGGTCTCCC
DNA 2: TGGTGGCTACGACGGGATT
B19: CAGAUUA (DNA:RNA)
RNA: B1 RNA with G26A, C27G, C28A, C29U, U31A
DNA 1: CAATCTGAATTCCGGTCTCCC
DNA 2: TGGTGGCTACGACGGGATT
B20: AGUCCGA (DNA:RNA)
RNA: B1 RNA with C25A, C27U, U30G, U31A
DNA 1: CAATCTGAATTCCGGTCTCCC
DNA 2: TGGTGGCTACGACGGGATT

What follows are binders tested against T1, RBFOX1 RRM RbFoxmut (Fox-RRM*) (assay: EMSA; HiTS-Eq, 1 nM pool, 10 min; buffer printed only for the single-RNA assays: 10 mM Tris pH 7.5, 150 mM NaCl, 3.4 mM EDTA, 0.001% NP-40, 30 C). Conditions: tags: His6 N-terminal (pET28a); label: 5' 32P.
How it was run: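 Purified RbFox RRM, wild type or mutant, was incubated for 10 min in 50 µL with 1 nM of a 5′-radiolabelled RNA pool carrying 7 randomized nucleotides, whose flanks were annealed to DNA oligonucleotides, over a series of increasing protein concentrations. Unbound RNA was resolved on 8% native PAGE, cut out, reverse-transcribed, barcoded by PCR and sequenced on an Illumina HiSeq 2500. Relative association constants were derived from changes in read counts for each RNA species versus the control reaction and normalised to the cognate motif.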

Row | Binder | binding signal
1 | B1 | 0.0724 KA relative to UGCAUGU
2 | B2 | 0.0959 KA relative to UGCAUGU
3 | B3 | 0.0898 KA relative to UGCAUGU
4 | B4 | 0.0426 KA relative to UGCAUGU
5 | B5 | 0.13 KA relative to UGCAUGU
6 | B6 | 0.0996 KA relative to UGCAUGU
7 | B7 | 0.095 KA relative to UGCAUGU
8 | B8 | 0.116 KA relative to UGCAUGU
9 | B9 | 0.105 KA relative to UGCAUGU
10 | B10 | 0.0808 KA relative to UGCAUGU
11 | B11 | 0.0341 KA relative to UGCAUGU
12 | B12 | 0.226 KA relative to UGCAUGU
13 | B13 | 0.0522 KA relative to UGCAUGU
14 | B14 | 0.0904 KA relative to UGCAUGU
15 | B15 | 0.105 KA relative to UGCAUGU
16 | B16 | 0.124 KA relative to UGCAUGU
17 | B17 | 0.114 KA relative to UGCAUGU
18 | B18 | 0.0701 KA relative to UGCAUGU
19 | B19 | 0.141 KA relative to UGCAUGU
20 | B20 | 0.0994 KA relative to UGCAUGU
